Assay results from a collection of fitness landscapes (doi:10.1126/science.1257360).
Some of the results follow.

B1: PhoQ; a variant is named by its letters at X, in order, P23837 (parent)
chain: MKKLLRLFFPLSLRVRFLLATAAVVLVLSLAYGMVALIGYSVSFDKTTFRLLRGESNLFYTLAKWENNKLHVELPENIDKQSPTMTLIYDENGQLLWAQRDVPWLMKMIQPDWLKSNGFHEIEADVNDTSLLLSGDHSIQQQLQEVREDDDDAEMTHSVAVNVYPATSRMPKLTIVVVDTIPVELKSSYMVWSWFIYVLSANLLLVIPLLWVAAWWSLRPIEALAKEVRELEEHNRELLNPATTRELTSLVRNLNRLLKSERERYDKYRTTLTDLTHSLKTPLXXLQXXLRSLRSEKMSVSDAEPVMLEQISRISQQIGYYLHRASMRGGTLLSRELHPVAPLLDNLTSALNKVYQRKGVNISLDISPEISFVGEQNDFVEVMGNVLDNACKYCLEFVEISARQTDEHLYIVVEDDGPGIPLSKREVIFDRGQRVDTLRPGQGVGLAVAREITEQYEGKIVAGESMLGGARMEVIFGRQHSAPKDE

Variants of: B1
Assay: enrichment ratio after two sorts for PhoP signalling (ratio (wild type AVST 3.29)); higher = more functional
Conditions: with PhoP (E. coli)

Variant | enrichment ratio
RVVN | ≤ 0.25
MKMS | ≤ 0.25
YHTW | ≤ 0.25
QYLN | ≤ 0.25
RASC | ≤ 0.25
QQVG | ≤ 0.25
TLYS | ≤ 0.25
DTDM | ≤ 0.25
PIHK | ≤ 0.25
FKSW | ≤ 0.25
NSGS | ≤ 0.25
STWL | ≤ 0.25
LFFW | ≤ 0.25
VFRK | ≤ 0.25
IIVW | ≤ 0.25
NVDW | ≤ 0.25
DEEW | ≤ 0.25
RVKC | ≤ 0.25
FSVC | ≤ 0.25
FSNA | ≤ 0.25
PQQY | ≤ 0.25
DRNG | ≤ 0.25
GRMA | ≤ 0.25
AIHM | ≤ 0.25

Variant | enrichment ratio
KFEK | ≤ 0.25
SVAA | 1.83
TTDS | 1.65
TFYV | ≤ 0.25
PQAK | ≤ 0.25
MGGG | ≤ 0.25
ALPS | ≤ 0.25
IHDW | ≤ 0.25
TTPT | ≤ 0.25
EYTG | ≤ 0.25
LEDC | ≤ 0.25
LGVS | ≤ 0.25
RECC | ≤ 0.25
YNFV | ≤ 0.25
MHVY | ≤ 0.25
STCS | 10.8
NADH | ≤ 0.25
PCHF | ≤ 0.25
WCYR | ≤ 0.25
KNFH | ≤ 0.25
VQLS | ≤ 0.25
YYQR | ≤ 0.25
GHCM | ≤ 0.25
GGQA | ≤ 0.25

Variant | enrichment ratio
VKQR | ≤ 0.25
SANF | 2.35
VTWM | ≤ 0.25
VVRG | ≤ 0.25
MEDL | ≤ 0.25
GCLK | 3.91
YTIK | ≤ 0.25
QWRF | ≤ 0.25
YHQP | ≤ 0.25
DNRN | ≤ 0.25
QYVF | ≤ 0.25
MEWW | ≤ 0.25
WNDH | ≤ 0.25
IEAI | ≤ 0.25
TAVH | ≤ 0.25
HWES | ≤ 0.25
MHDA | ≤ 0.25
RQHK | ≤ 0.25
NVLY | ≤ 0.25
QDPA | ≤ 0.25
MHCA | ≤ 0.25
FANM | ≤ 0.25
IVYS | ≤ 0.25
WGPN | ≤ 0.25

Variant | enrichment ratio
FSRL | ≤ 0.25
MEPQ | ≤ 0.25
VPVM | ≤ 0.25
LQYV | ≤ 0.25
VMMD | ≤ 0.25
DQQA | ≤ 0.25
MPTE | ≤ 0.25
FRFM | ≤ 0.25
INAW | ≤ 0.25
NEDV | ≤ 0.25
SEDH | ≤ 0.25
YNCR | ≤ 0.25
LLKF | ≤ 0.25
WEEP | ≤ 0.25
NRDA | ≤ 0.25
GKTC | ≤ 0.25
MNQA | ≤ 0.25
NERG | ≤ 0.25
TSGW | ≤ 0.25
GFES | ≤ 0.25
AMIR | 0.403
ARIK | ≤ 0.25
ASVQ | 4.67
RYQP | ≤ 0.25

Variant | enrichment ratio
DQTN | ≤ 0.25
MLPW | ≤ 0.25
RPNW | ≤ 0.25
LDGQ | ≤ 0.25
HEVF | ≤ 0.25
KMGN | ≤ 0.25
LKDP | ≤ 0.25
KSWG | ≤ 0.25
THCL | 8.89
HDQQ | ≤ 0.25
DDIQ | ≤ 0.25
EGFV | ≤ 0.25
LIEY | ≤ 0.25
VCVH | ≤ 0.25
YHYE | ≤ 0.25
RQGT | ≤ 0.25
TIMC | 9
DNPR | ≤ 0.25
YTPM | ≤ 0.25
NDFL | ≤ 0.25
TIKR | ≤ 0.25
AALF | 9.71
KNNY | ≤ 0.25
QHMP | ≤ 0.25

Variant | enrichment ratio
TIMN | 2.93
HFQF | ≤ 0.25
LGPQ | ≤ 0.25
TFEF | ≤ 0.25
RDVT | ≤ 0.25
IAAG | ≤ 0.25
EESW | ≤ 0.25
HKSI | ≤ 0.25
SNKE | ≤ 0.25
MCTV | ≤ 0.25
QYEY | ≤ 0.25
ALHF | ≤ 0.25
QSCT | ≤ 0.25
CPFL | ≤ 0.25
APPD | ≤ 0.25
HQDG | ≤ 0.25
YWVA | ≤ 0.25
GFRE | ≤ 0.25
QLNY | ≤ 0.25
NKKM | ≤ 0.25
SNAQ | 8.15
YKDR | ≤ 0.25
LLDS | ≤ 0.25
TRQV | ≤ 0.25

Variant | enrichment ratio
FKAD | ≤ 0.25
FSNH | ≤ 0.25
ILCS | ≤ 0.25
RHTG | ≤ 0.25
YRCG | ≤ 0.25
FHRV | ≤ 0.25
KKGW | ≤ 0.25
QAMM | ≤ 0.25
YVPA | ≤ 0.25
DFHV | ≤ 0.25
IVFH | ≤ 0.25
FIIS | ≤ 0.25
CCLI | ≤ 0.25
MNFV | 1.01
RTPY | ≤ 0.25
NTSA | ≤ 0.25
PHCQ | ≤ 0.25
SIGG | 6.86
HVPL | ≤ 0.25
FDFL | ≤ 0.25
REHE | ≤ 0.25
SPWC | ≤ 0.25
GNTS | 6.21
IKAT | ≤ 0.25

Variant | enrichment ratio
KTLW | ≤ 0.25
LPYY | ≤ 0.25
AWTK | 5.87
SMIW | ≤ 0.25
YCHI | ≤ 0.25
ALMS | ≤ 0.25
NNWQ | ≤ 0.25
VSGG | ≤ 0.25
MGDG | ≤ 0.25
VWMV | ≤ 0.25
SMIQ | ≤ 0.25
SRHQ | ≤ 0.25
VSYE | ≤ 0.25
AVAW | 22.5
NDDM | ≤ 0.25
TNKF | ≤ 0.25
YACD | ≤ 0.25
MKKT | ≤ 0.25
SNLQ | 15.3
KHLQ | ≤ 0.25
KETK | ≤ 0.25
KEHD | ≤ 0.25
MEDT | ≤ 0.25
EQPL | ≤ 0.25

Variant | enrichment ratio
YCST | 0.374
NLMC | ≤ 0.25
IHNL | ≤ 0.25
GHSH | ≤ 0.25
NQPK | ≤ 0.25
GLGL | 0.346
MPTN | ≤ 0.25
INLA | ≤ 0.25
PCAC | ≤ 0.25
HFGV | ≤ 0.25
YNSD | ≤ 0.25
WMAI | ≤ 0.25
NGGA | ≤ 0.25
SHKF | ≤ 0.25
RAVV | ≤ 0.25
RQMT | ≤ 0.25
VTMQ | 2.91
EDGI | ≤ 0.25
YTKS | ≤ 0.25
QCLT | ≤ 0.25
EYNQ | ≤ 0.25
ICVG | ≤ 0.25
VRDC | ≤ 0.25
NSRR | ≤ 0.25

Variant | enrichment ratio
NLGG | ≤ 0.25
ALGV | ≤ 0.25
DWCR | ≤ 0.25
SNHW | ≤ 0.25
LTKE | ≤ 0.25
RWAC | ≤ 0.25
IDSC | ≤ 0.25
DWQY | ≤ 0.25
NWHL | ≤ 0.25
GIWM | ≤ 0.25
YGEK | ≤ 0.25
YKYG | ≤ 0.25
TCYY | 3.43
EGYT | ≤ 0.25
QYKV | ≤ 0.25
QKMD | ≤ 0.25
EQHA | ≤ 0.25
AINS | ≤ 0.25
VECT | 12
IFHT | ≤ 0.25
TPDH | ≤ 0.25
WGLC | ≤ 0.25
VFAG | ≤ 0.25
QAPH | ≤ 0.25

Variant | enrichment ratio
ITNK | ≤ 0.25
MHEP | ≤ 0.25
PAEI | ≤ 0.25
WGSF | ≤ 0.25
VGLL | 9.05
YSAI | ≤ 0.25
PGTI | ≤ 0.25
YGGL | ≤ 0.25
LDCS | ≤ 0.25
GPKL | ≤ 0.25
EPIG | ≤ 0.25
GTCP | ≤ 0.25
HLPH | ≤ 0.25
SHNF | 9.74
WVHH | ≤ 0.25
LNNT | ≤ 0.25
NRNY | ≤ 0.25
TLSR | 1.28
ERSF | ≤ 0.25
PCHQ | ≤ 0.25
WPNT | ≤ 0.25
WASD | ≤ 0.25
NMAP | ≤ 0.25
DWGI | ≤ 0.25

Variant | enrichment ratio
NMMR | ≤ 0.25
FDFA | 0.475
EQHP | ≤ 0.25
GCIC | 2.37
AEWH | 22.3
RYNR | ≤ 0.25
MLVT | ≤ 0.25
YPWD | ≤ 0.25
PPEV | ≤ 0.25
LQSE | ≤ 0.25
IDHI | ≤ 0.25
AQDE | ≤ 0.25
ERSR | ≤ 0.25
ALHS | ≤ 0.25
QSLG | 0.319
HFKP | ≤ 0.25
QPCF | ≤ 0.25
KRGQ | ≤ 0.25
SYIY | ≤ 0.25
RHIT | ≤ 0.25
HTQF | ≤ 0.25
APLH | ≤ 0.25
KETC | ≤ 0.25
YHGD | ≤ 0.25

Variant | enrichment ratio
VCVM | ≤ 0.25
GTGT | ≤ 0.25
ISYG | ≤ 0.25
NELS | 1.28
ASDT | ≤ 0.25
LHSS | ≤ 0.25
RGLC | ≤ 0.25
YKFQ | ≤ 0.25
KFFQ | ≤ 0.25
DHDS | ≤ 0.25
SSEM | ≤ 0.25
VHRQ | ≤ 0.25
FKAV | ≤ 0.25
LNVG | ≤ 0.25
NGPQ | ≤ 0.25
DSAS | ≤ 0.25
YFGN | ≤ 0.25
SEHG | ≤ 0.25
